The structures appear in SMILES notation. Out of some 310,000 compounds screened, about 14,000 (4.5%) showed an effect of 50% or more. Effects have a minus sign here. Some of the results follow.
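Also: peak tail current of the secondary pulse compared with the same well before compound.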

The assay deals with human ether-à-go-go-related gene (hERG) potassium channel (human, UniProt Q12809). Nature of the assay: primary screen, population patch clamp on CHO cells stably expressing hERG.
Chain of human ether-à-go-go-related gene (hERG) potassium channel (Q12809 whole entry, looked up): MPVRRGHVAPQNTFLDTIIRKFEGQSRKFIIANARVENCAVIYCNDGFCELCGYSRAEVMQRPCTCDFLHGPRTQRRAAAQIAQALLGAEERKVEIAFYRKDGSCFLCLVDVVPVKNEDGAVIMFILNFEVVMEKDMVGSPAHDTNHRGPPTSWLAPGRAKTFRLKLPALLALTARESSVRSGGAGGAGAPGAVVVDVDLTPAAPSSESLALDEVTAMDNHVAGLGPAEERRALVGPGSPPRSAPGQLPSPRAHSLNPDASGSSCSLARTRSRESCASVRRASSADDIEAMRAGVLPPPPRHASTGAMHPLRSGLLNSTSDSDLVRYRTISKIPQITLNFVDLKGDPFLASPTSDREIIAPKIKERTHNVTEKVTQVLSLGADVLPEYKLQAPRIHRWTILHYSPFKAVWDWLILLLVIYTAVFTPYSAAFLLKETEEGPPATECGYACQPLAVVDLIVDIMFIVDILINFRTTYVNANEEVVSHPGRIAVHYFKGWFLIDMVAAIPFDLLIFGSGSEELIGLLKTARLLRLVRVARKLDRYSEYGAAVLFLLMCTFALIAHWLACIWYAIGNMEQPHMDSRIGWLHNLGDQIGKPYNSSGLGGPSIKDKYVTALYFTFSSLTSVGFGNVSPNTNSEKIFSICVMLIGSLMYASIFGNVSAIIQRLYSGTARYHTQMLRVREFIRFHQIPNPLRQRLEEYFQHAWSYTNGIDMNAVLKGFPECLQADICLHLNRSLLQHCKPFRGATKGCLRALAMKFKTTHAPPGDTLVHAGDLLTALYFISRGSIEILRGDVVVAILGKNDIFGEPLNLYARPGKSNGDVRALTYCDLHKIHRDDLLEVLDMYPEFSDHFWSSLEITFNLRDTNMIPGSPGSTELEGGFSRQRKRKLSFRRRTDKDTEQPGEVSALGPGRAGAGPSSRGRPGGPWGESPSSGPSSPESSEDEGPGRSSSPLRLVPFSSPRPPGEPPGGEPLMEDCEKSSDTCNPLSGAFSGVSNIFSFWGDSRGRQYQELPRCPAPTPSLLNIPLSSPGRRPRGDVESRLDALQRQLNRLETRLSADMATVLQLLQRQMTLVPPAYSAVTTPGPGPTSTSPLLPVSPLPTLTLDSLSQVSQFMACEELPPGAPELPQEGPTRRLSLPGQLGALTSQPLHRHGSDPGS
Take `CC(C1CC1)N(Cc1ccccc1)C(=O)NC(=O)c1ccccc1` (stereo not shown): the “hERG current change (%, negative = inhibition) at 10uM” value came to 3.36%.

Take `CCSCCC(NC1=CC(=O)CC(C)(C)C1)C(=O)O` (stereo not shown): the “hERG current change (%, negative = inhibition) at 10uM” value is listed as 3.86%. As to `Cc1cccc(C(C)C)c1NC(=O)c1cccnc1`, the “hERG current change (%, negative = inhibition) at 10uM” value came to 4.82%. For `OCCNCC(O)Cn1ccc2ccccc21` (stereo not shown), the “hERG current change (%, negative = inhibition) at 10uM” value is recorded as -1.13%. As to `CN(C)C(=O)Oc1cccc(NC(=O)c2ccccc2C(F)(F)F)c1`, the “hERG current change (%, negative = inhibition) at 10uM” value is 2.07%.

Take `CCc1noc(C)c1C(=O)Nc1sc(C(=O)N(C)C)c(C)c1C#N`: the “hERG current change (%, negative = inhibition) at 10uM” value was 18.4%. For the compound `Cc1nc2ccc(C(=O)c3ccccc3)cc2[nH]1`, the “hERG current change (%, negative = inhibition) at 10uM” value was determined as 9.07%. In the case of `CCC/C([O-])=N\S(=O)(=O)c1ccc(N=NN(C)C)cc1.[K+]` it was 11.7%; in that of `Cc1cc(C)nc(NC(=O)c2ccc(Br)cc2)n1`, 11.2%. For the compound `O=C(Nc1cccc(NC(=O)c2nccc3ccccc23)c1)c1ccco1`, the “hERG current change (%, negative = inhibition) at 10uM” value was found to be 10.9%. For the compound `Nc1ccc(C(=O)N/N=C/c2cn(Cc3ccccc3)c3ccccc23)cc1`, the “hERG current change (%, negative = inhibition) at 10uM” value is given as 18.5%.

With `COc1ccc(-c2nc(CS(=O)(=O)CC(=O)NCc3ccccc3OC)c(C)o2)cc1`, the “hERG current change (%, negative = inhibition) at 10uM” value is on record as -1.62%.

For the compound `CCc1cccc(C)c1NC(=S)N(CCN(C)C)C(C)c1ccco1` (stereo not shown), the “hERG current change (%, negative = inhibition) at 10uM” value was -16.8%.

Turning to `COc1ccc(/C=N/NC(=O)c2nc(-c3ccccc3)cc(-c3ccccc3)n2)cc1`, the “hERG current change (%, negative = inhibition) at 10uM” value is listed as -2.68%. Regarding `COc1ccc(/C(O)=C2/C(=O)C(=O)N(CCN3CCOCC3)C2c2ccccn2)cc1OC` (stereo not shown), the “hERG current change (%, negative = inhibition) at 10uM” value is reported as -10%. Regarding `CC(C(=O)Nc1ccc(C(N)=O)cc1)N1C(=O)c2ccccc2S1(=O)=O` (stereo not shown), the “hERG current change (%, negative = inhibition) at 10uM” value was determined as 1.35%.

Turning to `CC1=C(C(=O)Nc2ccccn2)C(c2ccc(N(C)C)cc2)n2ncnc2N1` (stereo not shown), the “hERG current change (%, negative = inhibition) at 10uM” value is on record as -62.7%. Take `Nc1ccc(Sc2ccc([N+](=O)[O-])cc2)cc1`: the “hERG current change (%, negative = inhibition) at 10uM” value is on record as 5.09%. In the case of `O=C(CCNC(=O)c1ccc(Br)cc1)NCCCc1ccccc1`, the “hERG current change (%, negative = inhibition) at 10uM” value is -4.7%.

As to `CCCN(C(=O)CSCC(=O)Nc1cccc(C)c1)c1c(N)n(Cc2ccccc2)c(=O)[nH]c1=O`, the “hERG current change (%, negative = inhibition) at 10uM” value turned out to be 6.24%. On to `Cc1ccc2nc(NS(C)(=O)=O)sc2c1`, for which the “hERG current change (%, negative = inhibition) at 10uM” value turned out to be 16.8%. Next, `Cc1ccc(C(=O)NC2CCCC(C)C2C)cc1S(=O)(=O)N1CCCCC1` (stereo not shown): -20.6%. Turning to `CCOC(=O)c1cnc(-n2nc(C)cc2C)nc1N1CC(C)OC(C)C1` (stereo not shown), the “hERG current change (%, negative = inhibition) at 10uM” value is -13%. Turning to `CCNC(=O)COC(=O)c1ccc(-n2nc(C)cc2C)cc1`, the “hERG current change (%, negative = inhibition) at 10uM” value is given as -5.43%. For `CC1=NN(c2nc(C)cc(C)n2)C(=O)C1CCC(C)C` (stereo not shown), the “hERG current change (%, negative = inhibition) at 10uM” value was -1.94%.

`CCOC(=O)c1c(C)[nH]c(C)c1S(=O)(=O)NCCc1ccco1`: the “hERG current change (%, negative = inhibition) at 10uM” value is listed as -4.93%. As to `Cc1cc(C)n(-c2ccc(C(=O)OCC(=O)c3ccc(Br)s3)cc2)n1`, the “hERG current change (%, negative = inhibition) at 10uM” value turned out to be 2.52%. `O=C(C1CCCO1)N1CCc2ccccc21` (stereo not shown): the “hERG current change (%, negative = inhibition) at 10uM” value amounted to 17.1%.

Turning to `O=C(Nc1ccccc1C(=O)O)c1cccc(S(=O)(=O)Nc2ccc(Br)cc2)c1`, the “hERG current change (%, negative = inhibition) at 10uM” value was 16.8%. In the case of `Cc1sc2nc(SCC(=O)C(C)(C)C)n(Cc3ccco3)c(=O)c2c1C`, the “hERG current change (%, negative = inhibition) at 10uM” value is given as 20.4%. As for `O=C1NC(=S)CN1c1ccccc1`, the “hERG current change (%, negative = inhibition) at 10uM” value amounted to 9.45%. Next, `O=C(Nc1cccc2ccccc12)N1CCOCC1`: 30.5%; `Cc1cccc(C)c1NC(=O)c1sccc1SCc1cccc(C(F)(F)F)c1`: -4.76%; `COc1cc(/C=C/C(=O)OCC(=O)N2CCOCC2)ccc1OCC#N`: 12.4%. In the case of `Cc1ccnc(NC(=O)Nc2cccc(F)c2)n1` it was 2.88%; in that of `COc1ccc(NC(C)(C)c2nnnn2-c2c(C)cccc2C)cc1`, -4.2%; in that of `COC(=O)c1ccc(CSc2nnc(CNC(=O)c3ccccc3F)o2)o1`, -14.5%. For the compound `O=S(=O)(Nc1ccon1)c1ccc(Br)s1`, the “hERG current change (%, negative = inhibition) at 10uM” value was determined as 14.9%.

With `CCc1ccc(OCC(=O)NC(NC(=S)Nc2ccccc2)C(Cl)(Cl)Cl)cc1` (stereo not shown), the “hERG current change (%, negative = inhibition) at 10uM” value came to 21.7%. In the case of `Nc1ncnc(Oc2cccc(C(F)(F)F)c2)c1[N+](=O)[O-]` it was -0.217%; in that of `CN1CCN(c2nc(-c3cc4ccccc4o3)cs2)CC1`, -16.9%; in that of `COc1ccccc1CNC(=O)CNCCc1ccc(OC)c(OC)c1.O=C(O)C(=O)O`, -1.23%. `CCn1nnc2cc(C(=O)NCCc3ccccc3F)ccc21`: the “hERG current change (%, negative = inhibition) at 10uM” value is on record as -16.7%. Regarding `COc1ccc2cnn(CCOc3cc(C)ccc3C(C)C)c(=O)c2c1OC`, the “hERG current change (%, negative = inhibition) at 10uM” value was -9.59%. For `Nc1cc(-c2ccccc2)nn1Cc1ccc(Cl)cc1`, the “hERG current change (%, negative = inhibition) at 10uM” value was -19%.

With `COC(=O)c1cn(Nc2ncc(C(F)(F)F)cc2Cl)c(=O)c2ccccc12`, the “hERG current change (%, negative = inhibition) at 10uM” value is 0.104%. Take `COc1cc(/C=C/C(=O)O)cc(S(=O)(=O)NCCCO)c1OC`: the “hERG current change (%, negative = inhibition) at 10uM” value was 6.81%. Regarding `COc1ccc(C(=O)NNS(=O)(=O)c2ccc(OC)cc2)cc1`, the “hERG current change (%, negative = inhibition) at 10uM” value is listed as 2.62%. As for `O=c1cnc2ccccc2n1CC1CCCCC1`, the “hERG current change (%, negative = inhibition) at 10uM” value turned out to be 0.812%. Take `Cc1ccc(C(=O)NNC(=O)Cn2nnc3ccccc32)cc1`: the “hERG current change (%, negative = inhibition) at 10uM” value turned out to be 13.3%. In the case of `COc1ccc(NC(=O)N2CCN(c3nc(-c4cccc(OC)c4)cs3)CC2)cc1` it was -0.729%; in that of `COc1ccc2[nH]c3c(=O)n4c(nc3c2c1)SCC4`, 6.11%. Next, `CNC(=O)/C(C#N)=C1/SC(Cc2ccc(F)cc2)C(=O)N1c1ccccc1` (stereo not shown): 7.53%; `c1ccc(COC2CCCN(Cc3nc(Cc4ccccc4)no3)C2)cc1` (stereo not shown): -0.814%; `Cc1ccc2cccc(OCC(=O)c3cc(C)n(Cc4ccco4)c3C)c2n1`: 8.98%. On to `Clc1ccccc1Cn1nnc(-c2cccs2)n1`, for which the “hERG current change (%, negative = inhibition) at 10uM” value was 4.89%. Turning to `CC1=CC(C)(C)NC(=S)N1NC(=O)c1ccccc1Cl`, the “hERG current change (%, negative = inhibition) at 10uM” value is 0.742%. Take `COC(=O)C1=CN(C(C)C)C=C(C(=O)OC)C1c1cc(Br)c(OC)c(OC)c1`: the “hERG current change (%, negative = inhibition) at 10uM” value is reported as -12.7%.

For the origin of these results see publication PMC4336329 (PLoS ONE, 2015).
